Hit rate of the full screen: of about 310,000 compounds, about 14,000 (4.5%) showed an effect of 50% or more. The effect is printed as a negative number. The list shows a part of the results.
molecular target: human ether-à-go-go-related gene (hERG) potassium channel (human, UniProt Q12809); assay: primary screen, population patch clamp on CHO cells stably expressing hERG
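Note: peak tail current of the secondary pulse compared with the same well before compound.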

human ether-à-go-go-related gene (hERG) potassium channel, sequence (Q12809 whole entry, looked up): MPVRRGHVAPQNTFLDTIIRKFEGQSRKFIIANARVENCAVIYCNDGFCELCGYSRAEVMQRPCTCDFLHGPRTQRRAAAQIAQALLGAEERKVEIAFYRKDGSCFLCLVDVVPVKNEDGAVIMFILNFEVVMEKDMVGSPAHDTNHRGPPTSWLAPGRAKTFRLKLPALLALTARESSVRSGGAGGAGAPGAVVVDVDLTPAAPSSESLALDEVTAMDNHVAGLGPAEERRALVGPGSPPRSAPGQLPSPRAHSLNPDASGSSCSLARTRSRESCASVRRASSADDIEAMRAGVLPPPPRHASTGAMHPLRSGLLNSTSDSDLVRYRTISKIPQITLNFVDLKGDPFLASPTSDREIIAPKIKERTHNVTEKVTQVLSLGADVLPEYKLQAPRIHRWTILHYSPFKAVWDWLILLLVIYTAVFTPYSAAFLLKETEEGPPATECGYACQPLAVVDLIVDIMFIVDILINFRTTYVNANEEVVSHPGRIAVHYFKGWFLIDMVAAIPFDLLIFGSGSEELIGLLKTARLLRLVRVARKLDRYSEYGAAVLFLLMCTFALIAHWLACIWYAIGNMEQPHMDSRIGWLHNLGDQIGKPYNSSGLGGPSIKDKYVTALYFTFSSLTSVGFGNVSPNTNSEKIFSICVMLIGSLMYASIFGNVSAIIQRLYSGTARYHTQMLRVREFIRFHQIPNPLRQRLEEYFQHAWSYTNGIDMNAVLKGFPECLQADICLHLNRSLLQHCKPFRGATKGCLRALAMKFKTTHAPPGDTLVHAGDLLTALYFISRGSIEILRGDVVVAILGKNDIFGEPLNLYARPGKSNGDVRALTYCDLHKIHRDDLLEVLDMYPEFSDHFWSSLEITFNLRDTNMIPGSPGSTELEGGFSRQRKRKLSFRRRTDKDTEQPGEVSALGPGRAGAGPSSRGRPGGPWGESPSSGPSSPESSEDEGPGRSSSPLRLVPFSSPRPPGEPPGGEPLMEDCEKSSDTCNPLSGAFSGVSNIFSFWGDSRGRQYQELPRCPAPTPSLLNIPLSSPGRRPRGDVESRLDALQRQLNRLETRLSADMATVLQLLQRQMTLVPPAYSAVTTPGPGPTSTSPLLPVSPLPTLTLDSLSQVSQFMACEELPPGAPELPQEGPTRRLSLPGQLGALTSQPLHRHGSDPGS

Compared with Cc1c(C)c2ccc(OCC(=O)Nc3ccccn3)cc2oc1=O, Cc1ccc(OCC(=O)Nc2cc(C)on2)c([N+](=O)[O-])n1 is lower in “hERG current change (%, negative = inhibition) at 10uM” value: 4.53% for the first, -1.57% for the second.

First: O=C(O)CCOc1ccc2c(c1)OCCO2
Second: CCCCn1c(O)c(C(CC)=NCc2ccc3c(c2)OCO3)c(=O)[nH]c1=O
The “hERG current change (%, negative = inhibition) at 10uM” value of the first is higher: 3.58% for the first, -46.4% for the second.

Going from COc1ccc(-c2nc(CSCC(=O)NC3CCCc4ccccc43)c(C)o2)cc1 (stereo not shown) to COc1ccc2[nH]c(=O)c(CN(CC3CCCO3)C(=S)Nc3ccccc3)cc2c1 (stereo not shown), the “hERG current change (%, negative = inhibition) at 10uM” value falls from 5.36% to -14.6%.

First: OCC1(Cc2ccccc2C(F)(F)F)CCN(Cc2ccc3c(c2)CCO3)CC1
Second: Oc1ccc(Cc2ncc(C(F)(F)F)cc2Cl)cc1
The “hERG current change (%, negative = inhibition) at 10uM” value of the first is lower: -28.7% for the first, -15.4% for the second.

First: CN=C(SCc1ccccc1)c1c(O)n(C)c(=O)n(C)c1=O
Second: O=c1c2[nH]cnc2n(-c2cccc(Br)c2)c(=O)n1Cc1ccccc1
The “hERG current change (%, negative = inhibition) at 10uM” value of the first is higher: 4.22% for the first, -19.3% for the second.

Compared with COc1ccc(C)cc1NC(=O)C(Sc1nnc(Nc2cc(C)ccc2OC)s1)c1ccccc1 (stereo not shown), COc1ccc(S(=O)(=O)N(C(=O)c2ccco2)c2cc3sc(=O)oc3c3ccccc23)cc1 is higher in “hERG current change (%, negative = inhibition) at 10uM” value: 0.631% for the first, 12.3% for the second.

First: COC(C(=O)N1CCC(n2nccc2NC(=O)C2CC2)CC1)c1ccccc1 (stereo not shown)
Second: Cc1ccc(SCCC(=O)Nc2ccccc2C(=O)NC2CCCCC2)cc1
The “hERG current change (%, negative = inhibition) at 10uM” value of the first is lower: 9.4% for the first, 10.8% for the second.

Going from NC(=NCCc1ccccc1)NS(=O)(=O)c1ccc(F)cc1 to O=C(O)c1ccc(C(=O)Nc2ccc(F)cc2)cc1, the “hERG current change (%, negative = inhibition) at 10uM” value falls from 18.5% to 13.5%.

Compared with Cc1cc(C)c(C)c(S(=O)(=O)N2CCC(C(=O)N3CCCC3)CC2)c1C, COc1ccc(-c2nnc(SCC(=O)N3CCCCC3)o2)cc1OC is higher in “hERG current change (%, negative = inhibition) at 10uM” value: -25.8% for the first, -8.03% for the second.

Going from CCOc1ccc(NC(=S)c2ccncc2)cc1 to Cc1ccc(OCCC(=O)OCC(=O)NCCc2ccc(Cl)cc2)cc1, the “hERG current change (%, negative = inhibition) at 10uM” value rises from 11.8% to 20.8%.

Compared with C/C(=N\NC(=O)CC1N=C(Cc2ccccc2)NNC1=O)c1ccc(Cl)cc1Cl (stereo not shown), NC(=O)Cn1cc(/C=N/NC(=O)c2ccc(Cn3cc(Cl)cn3)o2)c(-c2ccccc2)n1 is higher in “hERG current change (%, negative = inhibition) at 10uM” value: -8.9% for the first, 6.88% for the second.

First: Cc1c(Cl)c([N+](=O)[O-])nn1CCCC(=O)NC(C)c1ccccc1 (stereo not shown)
Second: Cc1ccc(OCCN2C(=O)c3ccccc3C2=O)c([N+](=O)[O-])c1
The “hERG current change (%, negative = inhibition) at 10uM” value of the first is lower: -13.5% for the first, 0.511% for the second.

Compared with CC1CN(C(=O)CCC(=O)NCc2ccc(Cl)cc2)c2ccccc2S1 (stereo not shown), COC(=O)c1ccccc1NC(=O)C1(S(=O)(=O)c2ccc(Cl)cc2)CC1 is higher in “hERG current change (%, negative = inhibition) at 10uM” value: -36.8% for the first, -17.9% for the second.

Going from Cc1ccc(C(CCN)c2ccco2)cc1 (stereo not shown) to CC1=CS/C(=C(/C#N)C(=O)NCc2ccco2)N1c1ccccc1, the “hERG current change (%, negative = inhibition) at 10uM” value rises from -2.63% to 1.79%.

Going from Cc1noc(C)c1CSc1nnnn1-c1ccc(Cl)cc1 to Cc1ccccc1Nc1nc(N)nc(CSc2nnnn2C)n1, the “hERG current change (%, negative = inhibition) at 10uM” value rises from -20.5% to 12%.

Going from COC(=O)C1=C(c2ccc(F)cc2OCc2ccccc2)C[C@@H]2CC[C@H]1N2C(=O)NCCCOC(C)C to COc1cc2c(cc1OC)C(C)N(C(=O)CCNC(=O)c1ccccc1)CC2 (stereo not shown), the “hERG current change (%, negative = inhibition) at 10uM” value rises from -12.9% to 15.1%.

First: Cc1cc(C)c(C#N)c(SCC2COc3ccccc3O2)n1 (stereo not shown)
Second: Nc1nc(SCC(=O)N2CCCCC2)[nH]c(=O)c1NC(=O)c1ccccc1F
The “hERG current change (%, negative = inhibition) at 10uM” value of the first is lower: 14.6% for the first, 19.7% for the second.

Going from N#CCC(=O)NC1CCC(CC2CCC(NC(=O)CC#N)CC2)CC1 (stereo not shown) to Cc1noc(C)c1C(=O)OCC(=O)NC(=O)NC12CC3CC(CC(C3)C1)C2, the “hERG current change (%, negative = inhibition) at 10uM” value falls from 16.2% to 8.78%.

First: COc1cccc(NC(=O)Cn2nc(Cc3cccnc3)c3ccccc3c2=O)c1
Second: O=c1cc(CSc2nnnn2-c2ccccc2)nc(Nc2ccc(F)cc2)[nH]1
The “hERG current change (%, negative = inhibition) at 10uM” value of the first is lower: -34.6% for the first, -4.69% for the second.

First: CCn1c(SCC(=O)NCc2ccco2)nnc1-c1cccs1
Second: COCCNC(=O)C(=O)N/N=C/c1cccs1
The “hERG current change (%, negative = inhibition) at 10uM” value of the first is lower: -8.86% for the first, 21.1% for the second.

Going from CCOC(=O)c1c(NC(=O)COC(=O)CCS(=O)(=O)c2ccc(C)cc2)sc(C)c1C to Cc1ccc(OCCC(=O)OCC(=O)c2c(N)n(CC(C)C)c(=O)n(C)c2=O)cc1, the “hERG current change (%, negative = inhibition) at 10uM” value falls from -12% to -71.9%.

In the case of Cc1c(NC(=O)CN2CC(C)OC(C)C2)c(=O)n(-c2ccccc2)n1C.O=C(O)C(=O)O (stereo not shown), the “hERG current change (%, negative = inhibition) at 10uM” value was 2.8%.
